Among all 52,000 compounds or so, about 1,700 (3.3%) were called active. No stated cut-off is given here; in the data, active means survival mostly below about 52% (no sharp cut-off); inactive means mostly above about 56%. This is one part of the list.

The experiment deals with Wild type. Kind of experiment: growth inhibition of S. aureus wild type versus tarO mutant, primary screen, teichoic acid synthesis inhibitors, RN4220, OD600 (AID 463173). Conditions: S. aureus RN4220 wild type/DeltatarO growth, OD600, 18 h, stronger effect = lower value, screened at 18.75 µg/mL (by protocol).
As to `COc1ccc2nc3sc(C(=O)N4CCN(c5ccccc5)CC4)cc3cc2c1`, the survival was inactive: 91%.

In the case of `COc1ccc(CCNC(=O)CCn2c(=O)c3ccccc3n(Cc3c(C)cc(C)cc3C)c2=O)cc1OC`, the survival was inactive: 80%.

On to `CN(C)c1ccc(C(CNC(=O)c2ccccc2F)N2CCc3ccccc32)cc1` (centres undefined), for which the survival was inactive: 79%.

For `Cc1csc2nc(CCNS(=O)(=O)c3ccccc3)cn12`, the survival is inactive: 63%.

On to `CC(C)CCNC(=O)CN1C(=O)c2cccnc2Oc2ccccc21`, for which the survival was inactive: 75%.

As to `N#Cc1ccccc1S(=O)(=O)N1CCCC(c2nc3c(nnn3Cc3cccc(Cl)c3)c(=O)[nH]2)C1` (centres undefined), the survival is inactive: 82%.

On to `CN1CCN(C(=O)c2cnn(-c3cccc(Cl)c3)c2C2CCN(C(=O)OC(C)(C)C)CC2)CC1`, for which the survival was inactive: 80%.

In the case of `COc1cccc(CNC(=O)c2ccc3c(c2)N(Cc2ccc(C(F)(F)F)cc2)C(=O)c2ccccc2S3)c1OC`, the survival is inactive: 149%.

As to `O=C(NCc1ccco1)c1c[nH]c2ccc(S(=O)(=O)Nc3ccc(F)cc3F)cc2c1=O`, the survival is inactive: 81%.

For the compound `Cc1nn(-c2ccccc2)c2c1N(CCCC(=O)NCc1ccc(Cl)cc1)C(=O)CS2`, the survival is inactive: 69%.

As to `CCCCNc1nc2c(S(=O)(=O)c3ccc(Cl)cc3)nnn2c2ccsc12`, the survival was inactive: 89%.

`CC(C)(C)c1ccc(S(=O)(=O)c2cnc(SCC(=O)Nc3ccc(F)c(Cl)c3)[nH]c2=O)cc1`: the survival is inactive: 73%.

Turning to `CCOc1ccc(NC(=O)Cc2ccc(NC(=O)N3CCCCc4ccccc43)cc2)cc1`, the survival is inactive: 75%.

With `O=C(CN(C(=O)Cn1nnc(-c2cccs2)n1)c1ccc2c(c1)OCCO2)NCC1CCCO1` (centres undefined), the survival is inactive: 95%.

Turning to `COc1ccc(-c2nnc(SCC(=O)NCc3ccccc3)nc2-c2ccc(OC)c(OC)c2)cc1OC`, the survival is inactive: 89%.

As to `Cc1ccc(CN(Cc2ccco2)C(=O)COc2ccc(Cl)cc2Cl)cc1`, the survival was inactive: 117%.

On to `O=C(O)CN1C(=O)S/C(=C\c2ccccc2)C1=O`, for which the survival was inactive: 117%.

In the case of `CCOc1ccccc1CNC(=O)CN(c1ccc(C)cc1)S(=O)(=O)N(C)C`, the survival is inactive: 65%.

`O=C1CCCCC(=O)c2ccccc2N1`: the survival was inactive: 99%.

As to `CCOC(=O)c1cc(-c2ccc(F)cc2)n(CC(=O)NCc2ccc(OC)cc2)c1C`, the survival was inactive: 71%.

Take `COC(=O)c1ccc([C@H]2Nc3ccc(S(=O)(=O)Nc4ccc(C)cc4)cc3[C@H]3C=CC[C@H]32)cc1`: the survival was inactive: 73%.

On to `Brc1ccc(-c2nnc3sc(CN4CCCCC4)cn23)cc1`, for which the survival was inactive: 80%.

Consider `Cc1ccccc1-c1nnc(CN2CCN(c3cccc(C)c3C)CC2)o1`, for which the survival was inactive: 62%.

With `CCCN1C(=O)c2[nH]nc(-c3ccccc3O)c2C1c1cccc(OCc2ccccc2)c1` (centres undefined), the survival was inactive: 42%.

For `CCOc1ccccc1NC(=O)CSc1nnc(N)s1`, the survival was inactive: 94%.

As for `Cc1ccc(NC(=O)CSc2nnc(C)n3c2cc2sccc23)c(C)c1`, the survival is inactive: 84%.

As to `COc1cccc(NC(=O)CSc2nc3c([nH]c4ccccc43)c(=O)n2-c2ccccc2)c1`, the survival was inactive: 67%.

For the compound `CC(C)(C)NC(=O)c1cnn(-c2ccccc2)c1C1CCN(C(=O)OC(C)(C)C)CC1`, the survival is inactive: 74%.

For the compound `Cc1ccc(CSc2ccc(-c3cccs3)nn2)cc1`, the survival was inactive: 90%.

`O=C(Cn1ncc2c3ccccc3n(Cc3ccccc3F)c2c1=O)NC1CCCCCC1`: the survival was inactive: 89%.

On to `O=C(NCc1ccccc1Cl)c1cc2c(s1)-c1ccccc1SC2`, for which the survival is inactive: 74%.

Regarding `COCCNC(=O)C(=O)NCC(c1cccnc1)N1CCN(c2ccccc2OC)CC1` (centres undefined), the survival is inactive: 92%.

Consider `COc1cc(C(=O)NCC(c2cccnc2)N2CCc3ccccc3C2)cc(OC)c1OC` (centres undefined), for which the survival is inactive: 80%.

In the case of `CCC(=O)Nc1ccccc1-c1nc2ccccc2n(CC(=O)c2ccc(C)c(C)c2)c1=O`, the survival is inactive: 64%.

On to `O=S(=O)(Nc1cccc(-c2ccc(N3CCCCCC3)nn2)c1)c1ccccc1F`, for which the survival is inactive: 57%.

In the case of `CC1(C)CC(=O)C(C=NCCCN2CCCC2=O)=C(O)C1`, the survival is inactive: 85%.

Consider `O=C(CN1C(=O)COc2ccc(S(=O)(=O)N3CCOCC3)cc21)N1CCN(c2cccc(C(F)(F)F)c2)CC1`, for which the survival is inactive: 91%.

For the compound `Cc1oc2ncn(C)c(=O)c2c1C(=O)Nc1ccccn1`, the survival was inactive: 90%.

On to `CCc1nc2sc3c(N4CCC(C)CC4)ncnc3c2c2c1CCCC2`, for which the survival is inactive: 123%.

`Cc1ccc(CN(C(=O)COc2ccc(Cl)c(C)c2)c2ccccn2)o1`: the survival is inactive: 78%.

For the compound `CN(C)S(=O)(=O)c1ccc(C(=O)NCCS(=O)(=O)N2CCN(c3ccccc3)CC2)cc1`, the survival is inactive: 73%.

As to `Cc1nc2nc(SCc3c(F)cccc3Cl)nn2c(C)c1Cc1ccccc1`, the survival is inactive: 53%.

As to `Cc1ccc(-c2cc(-c3ccc4c(c3)NC(=O)CO4)nc3c2COc2ccc(C)cc2-3)cc1`, the survival is inactive: 73%.

In the case of `COc1cc(C2c3c(-c4c(C)cc(C)cc4O)n[nH]c3C(=O)N2CCO)cc(OC)c1OC` (centres undefined), the survival is inactive: 101%.

As to `COc1ccc(OC)c(CNC(=O)c2cc3cc4ccc(OC)cc4nc3o2)c1`, the survival is inactive: 90%.

Take `Cc1cc(NC(=O)c2ccccc2Cl)ccc1NC(=O)c1ccccc1`: the survival is inactive: 85%.

As to `COc1ccc(-c2noc(COc3cc(C)c(Br)c(C)c3)n2)cc1OC`, the survival was inactive: 80%.

Take `Cc1cc(-n2c(C)nc3ccccc3c2=O)ccc1NC(=O)c1ccc(C)c([N+](=O)[O-])c1`: the survival is active: 10%.

As for `Cc1ccc(C(=O)/C=C/c2cn(CC(O)CN3CCc4ccccc43)c3ccccc23)cc1` (centres undefined), the survival is inactive: 76%.

Take `O=C(Nn1cnnc1)c1cccc(C(=O)Nn2cnnc2)c1`: the survival is inactive: 111%.

With `CCOc1cc2sc(N3CCC(C(=O)Nc4ccccc4Cl)CC3)nc2cc1Br`, the survival was inactive: 73%.

On to `Cc1ccc(CN2CCC(CNC(=O)c3cc4ccc5cccnc5c4[nH]3)CC2)cc1`, for which the survival was inactive: 113%.

`Cc1cc(S(=O)(=O)C(CNC(=O)COc2ccccc2)c2cccs2)ccc1F` (centres undefined): the survival is inactive: 153%.

`Cc1ccc(-c2nn(CC(=O)NC3CCCC3)c3c2cnc2ccc(F)cc23)cc1C`: the survival was inactive: 74%.

`O=C(Nc1ccc2nc(SCc3ccccc3)sc2c1)c1cccc(F)c1`: the survival was inactive: 89%.

Take `COc1ccc(NC(=O)CCN2CCN(CCO)CC2)c(OC)c1`: the survival was inactive: 69%.

Take `COc1ccc(Oc2nc3c(c(=O)n(C)c(=O)n3C)n2Cc2ccccc2Cl)cc1`: the survival is inactive: 75%.

With `COc1ccccc1Cn1cc(C(=O)c2ccc(Cl)cc2)c(=O)c2cc3c(cc21)OCCO3`, the survival is inactive: 92%.

As for `CCN(CC)C(=O)CSc1nnc(-c2ccc(OC)cc2)n1CCOC`, the survival was inactive: 107%.

For the compound `COc1ccc(OCCSc2nc(C)c(Cc3ccccc3)c(=O)[nH]2)cc1`, the survival was inactive: 84%.

In the case of `CC(C(=O)Nc1ccc(F)c(Cl)c1)N1Cc2ccccc2C1=O` (centres undefined), the survival was active: 0%.

Consider `COc1ccc(-c2noc(N3CCN(c4cccc(Cl)c4)CC3)n2)cc1OC`, for which the survival is inactive: 73%.

Turning to `Cc1cc(OCC(=O)Nc2cc(-c3nc4ccccc4[nH]3)ccc2C)ccc1Cl`, the survival is inactive: 69%.

As for `CCSc1oc(-c2ccc(F)cc2)nc1S(=O)(=O)c1ccc(C)cc1`, the survival was inactive: 41%.

Regarding `CN1CCN(C(=O)c2ccc3c(c2)N(Cc2c(F)cccc2Cl)C(=O)c2ccccc2S3)CC1`, the survival is inactive: 95%.

On to `CCc1sc(Nc2ccc(Cl)cc2)nc1-c1cc2cccc(OC)c2oc1=O`, for which the survival was inactive: 84%.

As for `CCOc1cc(C(=O)Nc2nnc3n2CCS3)cc(OCC)c1OCC`, the survival was inactive: 66%.

Consider `COc1ccccc1CNC(=O)COc1cc(=O)n(C)c2ccccc12`, for which the survival was inactive: 66%.

As for `CCOC(=O)c1cc2occc2n1C(C)C(=O)OCC` (centres undefined), the survival was inactive: 95%.

For the compound `Cc1ccccc1C(=O)Nc1nnc(SCc2cc(=O)n3ccccc3n2)s1`, the survival is inactive: 55%.

Take `CCOc1ccc(C(=O)CSc2nnc3cc(C)c4ccccc4n23)cc1`: the survival is inactive: 85%.

On to `CC(C)(C)c1ccc(C(=O)NCC(c2cccs2)S(=O)(=O)c2ccc(F)cc2)cc1` (centres undefined), for which the survival is inactive: 138%.

With `Cc1ccc(N(CC(=O)NCC(C)c2ccccc2)S(=O)(=O)N(C)C)cc1` (centres undefined), the survival was inactive: 63%.

As for `CC(=O)c1cccc(S(=O)(=O)N2CCN(c3ccccc3F)CC2)c1`, the survival is inactive: 89%.

Consider `CCCCC(CC)CNC(=O)c1ccc2c(=O)n(CCOC)c(=O)[nH]c2c1` (centres undefined), for which the survival was inactive: 134%.

Take `COc1cc(Cl)c(C)cc1Nc1nc2ccccc2nc1NS(=O)(=O)c1ccccc1`: the survival is inactive: 127%.

For the compound `Cc1ccc(N2CCN(C(=O)NCc3noc4ccccc34)CC2C)cc1` (centres undefined), the survival was inactive: 84%.

`Cc1cccc(C(=O)Nc2ccc(-c3nc4cc(C(C)C)ccc4o3)cc2)c1`: the survival was inactive: 47%.

Consider `COc1ccccc1N1CCN(C(=O)c2cnn(-c3ccc(C)c(C)c3)c2C2CCN(C(=O)OC(C)(C)C)CC2)CC1`, for which the survival was inactive: 99%.

With `O=C(CCCN1CCOCC1)c1ccc2c(c1)OCCO2`, the survival is inactive: 106%.

`COc1ccc(S(=O)(=O)n2nc(C)c(S(=O)(=O)N3CCCCCC3)c2C)cc1OC`: the survival was active: 1%.

With `CCOC(=O)c1ccc(NC(=O)C2CCN(C(=O)N3CC(C)Oc4ccc(C)cc43)CC2)cc1` (centres undefined), the survival is inactive: 60%.

Consider `CCCOc1ccc(C(=O)N(Cc2cccs2)c2ccc(C)cc2)cc1`, for which the survival is inactive: 101%.

`CCOC(=O)c1c(C)oc2ncnc(NCCCN3CCN(c4cc(C)ccc4C)CC3)c12`: the survival was inactive: 70%.

`COc1ccc(-c2c3c(nc4sc(C(=O)Nc5ccc(F)cc5)c(N)c24)CC(C)(C)CC3=O)cc1`: the survival was inactive: 84%.

On to `Cc1nnc2c(Nc3ccccc3I)nc3nonc3n12`, for which the survival is inactive: 108%.

Turning to `Cc1ccccc1-c1nc(C(N)=O)c2c(n1)n(-c1ccc3c(c1)OCO3)c(=O)n2C`, the survival is inactive: 76%.

As for `O=S(=O)(NCCc1csc2nc(-c3ccc(Cl)cc3)nn12)c1ccc(Oc2ccccc2)cc1`, the survival was inactive: 69%.

In the case of `CC(=O)c1cccc(NC(=O)CSc2nnc3ccc(-c4ccc(C)cc4)nn23)c1`, the survival was inactive: 85%.

(Values after PubChem BioAssay AID463173 (ICCB-Longwood Screening Facility, Harvard Medical School, 2010).)
